Source: the supplement of paper PMC3334620
Whole data set: some 33,000 sequences, median “E-score (-0.5 to 0.5)” near -0.032, cut for the highest 2% near 0.36. The list shows a part of the results.

Target: T1, Sko1 (UniProt Q02100)
T1 sequence: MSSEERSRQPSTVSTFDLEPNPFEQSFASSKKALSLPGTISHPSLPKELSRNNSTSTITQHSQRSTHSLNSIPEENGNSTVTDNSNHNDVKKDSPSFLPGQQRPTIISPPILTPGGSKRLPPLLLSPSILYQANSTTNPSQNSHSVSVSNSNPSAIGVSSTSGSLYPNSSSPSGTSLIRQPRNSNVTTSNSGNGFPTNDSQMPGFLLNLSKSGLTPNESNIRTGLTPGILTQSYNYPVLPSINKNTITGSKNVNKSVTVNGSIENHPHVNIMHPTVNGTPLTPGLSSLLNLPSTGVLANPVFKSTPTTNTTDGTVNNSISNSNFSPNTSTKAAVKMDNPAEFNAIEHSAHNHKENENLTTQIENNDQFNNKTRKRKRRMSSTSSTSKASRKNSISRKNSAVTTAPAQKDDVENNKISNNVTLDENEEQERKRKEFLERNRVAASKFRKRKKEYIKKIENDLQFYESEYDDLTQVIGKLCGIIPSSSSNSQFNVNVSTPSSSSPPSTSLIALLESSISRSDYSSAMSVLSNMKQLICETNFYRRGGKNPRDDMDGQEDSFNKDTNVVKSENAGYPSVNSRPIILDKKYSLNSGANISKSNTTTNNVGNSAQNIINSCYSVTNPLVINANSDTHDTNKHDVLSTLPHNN
Assay: PBM E-score (8-mer binding enrichment) (E-score (-0.5 to 0.5)); higher = stronger / more preferred TF binding; most listed sequences are background and not binding sites
Conditions: protein concentration: 200 nM; construct: GST-full length
How it was run: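 E-scores (a modified Wilcoxon-Mann-Whitney statistic) were assigned by the Universal PBM Analysis Suite to every ungapped eight-base word pooled with its reverse complement. The input came from universal all-10-mer Agilent arrays made double-stranded by primer extension and probed with GST-tagged yeast transcription factors at about 100-200 nM. Fluorescent anti-GST detected bound protein, and masliner normalised the scans.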

| Sequence | PBM E-score |
| --- | --- |
| AAGTTTAA | 0.043 |
| AAAGGGTT | -0.115 |
| CGAACGTC | 0.238 |
| ACATACAA | 0.139 |
| GACCTGCA | -0.185 |
| CTCACGTA | 0.356 |
| AAACCCTG | -0.224 |
| TACCCCAA | -0.12 |
| CACTCGGG | -0.291 |
| CCCCAGCG | -0.194 |
| AACGAGAC | -0.013 |
| CATACAAA | 0.251 |
| AGGTGCTG | -0.288 |
| AAAATTAG | 0.0606 |
| AGATTGCC | -0.248 |
| CGACAATA | 0.105 |
| CATCCGTC | -0.0447 |
| TCGCATAA | 0.195 |
| GTGATACA | 0.141 |
| ATTAGCCC | -0.156 |
| ATGCCTGA | -0.129 |
| GTCCTTCA | 0.0853 |

| Sequence | PBM E-score |
| --- | --- |
| CTCCCAAG | -0.233 |
| AAACTGAA | -0.00727 |
| ACGACCGG | -0.335 |
| ATTATGTG | 0.266 |
| ACTTATTG | -0.0912 |
| AAGGGTTC | -0.272 |
| ATGTCGTC | 0.365 |
| ACTTCGCC | -0.00308 |
| CCTTTACA | 0.0593 |
| CCACGATA | 0.0737 |
| CGAGTTCA | 0.00744 |
| AAGGATAC | 0.00239 |
| GGGCCTAA | -0.266 |
| ACCTCGTG | 0.0137 |
| CTCTAATA | 0.228 |
| AACAGCCA | 0.106 |
| AATGACCT | 0.267 |
| ATTGGAAC | 0.161 |
| CTCTGTTA | -0.0551 |
| GTGTGGAA | 0.199 |
| CCATGGAA | 0.0172 |
| TAGTATCA | 0.187 |

| Sequence | PBM E-score |
| --- | --- |
| AGGTGATG | 0.087 |
| GAAAGGAA | -0.0626 |
| CTACATCA | 0.375 |
| GCACTGTA | 0.0278 |
| CTGACCAG | -0.281 |
| AGCGAGAG | 0.00439 |
| ATAGACGG | -0.098 |
| AGTAGAGG | -0.232 |
| TAACTGTA | 0.0544 |
| AGTTACGC | 0.317 |
| GCCACGAC | 0.00461 |
| TACAAATA | 0.222 |
| AAAGACAT | 0.15 |
| AGCCCGCT | -0.379 |
| CGACCATA | -0.0861 |
| ATACGTCG | 0.422 |
| GGTATTAA | 0.00055 |
| AGACTGAG | -0.225 |
| CGGACCAC | -0.156 |
| CATTTGTA | 0.241 |
| AAAGTTAC | 0.259 |
| AGGGGCAT | -0.165 |

| Sequence | PBM E-score |
| --- | --- |
| CGAACTAA | 0.143 |
| CGCCTGCA | -0.145 |
| ACGGACTG | -0.149 |
| AAAAACCA | 0.0638 |
| GACGACGA | 0.0774 |
| GGAAATCC | -0.197 |
| CATGTGAG | -0.132 |
| GCGATAAC | 0.108 |
| CCGTATGC | -0.0726 |
| AACCTAAG | -0.0794 |
| GCGCGACC | -0.101 |
| GTCCATGA | 0.00179 |
| CAGAAGGA | -0.308 |
| AACAGATG | -0.0683 |
| AGCCCTCG | -0.187 |
| CAGTTAAA | 0.0533 |
| TTCTTAAA | 0.0524 |
| AAACAAAA | 0.173 |
| TACCTAGA | -0.116 |
| CCCGCAAA | -0.0244 |
